# Measured values published in the supplement of paper PMC11060735.
# “And” between values parts separate entries of the source, which are not always exact repeats. Equal values may be shown once. Where a name gives a salt, the structure may show the parent alone. About 50 (3%) of roughly 1,800 compounds showed activity. The list shows a part of the results.
# Test system: mouse p16Ink4a+/- lung fibroblasts (INKBRITE, bleomycin-injured)
# Assay: percentage of GFP+ (p16Ink4a+) fibroblasts among all cells in well; higher = less depletion of p16Ink4a+ cells, active = 20 or less
# Details: 1 µM; 3 days
# 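Further: fibroblasts sorted 14 days after bleomycin, GFP+ and GFP− mixed 1:1 in 384-well plates (GFP− as in-well control), imaged after Hoechst and NucView530 staining, reference wells lacked compound.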
row,SMILES,percentage of GFP+
1,Nc1cc(C(F)(F)F)c(-c2cc(N3CCOCC3)nc(N3CCOCC3)n2)cn1 [Buparlisib],inactive: 41.6%
2,CNC[C@H](O)[C@@H](O)[C@H](O)[C@H](O)CO [Meglumine],inactive: 34.1%
3,Cc1ccnc(NS(=O)(=O)c2ccc(N)cc2)n1 [Sulfamerazine],inactive: 43.6%
4,Cc1cc(-n2c(=O)[nH]c(=O)n(C)c2=O)ccc1Oc1ccc(SC(F)(F)F)cc1 [Toltrazuril],inactive: 49.4%
5,Cn1c(=O)n(-c2ccc(C(C)(C)C#N)cc2)c2c3cc(-c4cnc5ccccc5c4)ccc3ncc21 [Dactolisib],inactive: 36%
6,NC(=O)c1ncn([C@@H]2O[C@H](CO)[C@@H](O)[C@H]2O)n1 [Ribavirin],inactive: 41.5%
7,Cc1ccc(C(=O)C(C)CN2CCCCC2)cc1 (stereo unspecified) [Tolperisone],inactive: 47.7%
8,Nc1ccn([C@@H]2CS[C@H](CO)O2)c(=O)n1 [Lamivudine],inactive: 44.1%
9,C[C@]12CCC3=C4CCC(=O)C=C4CC[C@H]3[C@@H]1CC[C@@]2(O)CC#N [Dienogest],inactive: 31.3%
10,CCOc1ccn(-c2ccc(F)cc2)c(=O)c1C(=O)Nc1ccc(Oc2ccnc(N)c2Cl)c(F)c1,inactive: 54.5%
11,CN1CCN(CCCN2c3ccccc3Sc3ccc(C(F)(F)F)cc32)CC1 [Trifluoperazine],inactive: 52%
12,"CO[C@H]1C[C@@H]2CC[C@@H](C)[C@@](O)(O2)C(=O)C(=O)N2CCCC[C@H]2C(=O)O[C@H]([C@H](C)C[C@@H]2CC[C@@H](OP(C)(C)=O)[C@H](OC)C2)CC(=O)[C@H](C)/C=C(\C)[C@@H](O)[C@@H](OC)C(=O)[C@H](C)C[C@H](C)/C=C/C=C/C=C/1C [Ridaforolimus, Deforolimus]",inactive: 34.9%
13,CC(C)(C)OC(=O)N[C@H]1CCCCC/C=C\[C@@H]2C[C@@]2(C(=O)NS(=O)(=O)C2CC2)NC(=O)[C@@H]2C[C@@H](OC(=O)N3Cc4cccc(F)c4C3)CN2C1=O [Danoprevir],inactive: 41.7%
14,COc1ccc(C[C@H](NC(=O)[C@H](C)NC(=O)CN2CCOCC2)C(=O)N[C@@H](Cc2ccccc2)C(=O)[C@]2(C)CO2)cc1,active: 11.6%
15,COc1cc2ncnc(Nc3cccc(Cl)c3)c2cc1OC,inactive: 50.1%
16,O[C@@H]1CO[C@H]2[C@@H]1OC[C@@H]2O [Isosorbide],inactive: 53%
17,Cc1c(C(=O)NN2CCCCC2)nn(-c2ccc(Cl)cc2Cl)c1-c1ccc(Cl)cc1 [Rimonabant],inactive: 48%
18,CN(C)CCOc1ccc(/C(=C(/CCCl)c2ccccc2)c2ccccc2)cc1 [Toremifene],inactive: 44.3%
19,CCOC(=O)CC(=O)N1CCSC1COc1ccccc1OC (stereo unspecified) [Moguisteine],inactive: 39.2%
20,O=C(NC(Cc1cc(O)nc2ccccc12)C(=O)O)c1ccc(Cl)cc1 (stereo unspecified) [Rebamipide],inactive: 41.9%
21,CCCCCCCCCC(=O)N[C@@H](Cc1c[nH]c2ccccc12)C(=O)N[C@H](CC(N)=O)C(=O)N[C@@H](CC(=O)O)C(=O)N[C@@H]1C(=O)NCC(=O)N[C@H](CCCN)C(=O)N[C@@H](CC(=O)O)C(=O)N[C@@H](C)C(=O)N[C@@H](CC(=O)O)C(=O)NCC(=O)N[C@H](CO)C(=O)N[C@@H]([C@@H](C)CC(=O)O)C(=O)N[C@@H](CC(=O)c2ccccc2N)C(=O)O[C@@H]1C [Daptomycin],inactive: 37.2%
22,CCCNC(=O)Nc1ccc(Oc2ncnc3cc(OC)c(OC)cc23)cc1Cl,inactive: 38.6%
23,Cc1cccc(Nc2ccncc2S(=O)(=O)NC(=O)NC(C)C)c1 [Torasemide],inactive: 41.5%
24,O=C(O[C@H]1CN2CCC1CC2)N1CCc2ccccc2[C@@H]1c1ccccc1 [Solifenacin],inactive: 53.4%

row,SMILES,percentage of GFP+
1,c1ccc2c(CCNc3ccc(Nc4ccncc4)cc3)c[nH]c2c1 [Serdemetan],inactive: 38.5%
2,C=C1C(=O)O[C@H]2[C@H]1CC/C(C)=C\CC[C@@]1(C)O[C@@H]21 [(-)-Parthenolide],inactive: 31.1%
3,CCC[C@@H]1O[C@@H]2C[C@H]3[C@@H]4CCC5=CC(=O)C=C[C@]5(C)[C@H]4[C@@H](O)C[C@]3(C)[C@]2(C(=O)CO)O1 [Budesonide],inactive: 30.8%
4,CC(C)(C)/[N+]([O-])=C/c1ccc(S(=O)(=O)O)cc1S(=O)(=O)O,inactive: 45.9%
5,CC[C@H](c1ccc(O)cc1)[C@@H](CC)c1ccc(O)cc1 [Hexestrol],inactive: 46.7%
6,NC1=N[C@@]2(c3cc(NC(=O)c4ccc(F)cn4)ccc3F)COC[C@H]2CS1,inactive: 42.7%
7,Cc1nccn1CC1CCc2c(c3ccccc3n2C)C1=O (stereo unspecified) [Ondansetron],inactive: 37.2%
8,C1N2CN3CN1CN(C2)C3 [Hexamethylenetetramine],inactive: 50.1%
9,COc1cc2c(cc1O)CC[C@@H]1[C@@H]2CC[C@]2(C)[C@@H](O)CC[C@@H]12 [2-Methoxyestradiol],inactive: 30.7%
10,O=C1c2c(O)cc(O)cc2O[C@H](c2ccc(O)c(O)c2)[C@H]1O [Taxifolin (Dihydroquercetin)],inactive: 43.8%
11,Oc1cccc(-c2nc(N3CCOCC3)c3oc4ncccc4c3n2)c1,inactive: 37%
12,OCc1ccc(-c2ccc(-c3ccc(CO)s3)o2)s1,inactive: 34.7%
13,Cc1cc(C2CCCCC2)n(O)c(=O)c1 [Ciclopirox],inactive: 29.6% and inactive: 35.5%
14,O=C(Oc1cc(S(=O)(=O)c2ccccc2)ccc1[N+](=O)[O-])c1ccc(Cl)cc1,inactive: 56.2%
15,NC(=O)c1cnccn1 [Pyrazinamide],inactive: 40.9%
16,Cc1ccccc1C(OCCN(C)C)c1ccccc1 (stereo unspecified) [Orphenadrine],inactive: 34.6%
17,Nc1nc(N)c(N=O)c(OCC2CCCCC2)n1,inactive: 38.6%
18,NCC(=O)Nc1ccc(-n2nc(C(F)(F)F)cc2-c2ccc3c(ccc4ccccc43)c2)cc1,inactive: 38.6%
19,NS(=O)(=O)c1cc2c(cc1Cl)NCNS2(=O)=O [Hydrochlorothiazide],inactive: 35.2%
20,Oc1ccc([C@H]2COc3cc(O)ccc3C2)cc1 [Equol],inactive: 37.9%
21,Nc1ccc(S(=O)(=O)Nc2nccs2)cc1 [Sulfathiazole],inactive: 48.5%
22,COc1ccc([C@@H]2Sc3ccccc3N(CCN(C)C)C(=O)[C@@H]2OC(C)=O)cc1 [Diltiazem],inactive: 42.6%
23,NC(=O)OCC(COC(N)=O)c1ccccc1 [Felbamate],inactive: 48%
24,CC(C)(Oc1ccc(C2CC2(Cl)Cl)cc1)C(=O)O (stereo unspecified) [Ciprofibrate],inactive: 65.1%

row,SMILES,percentage of GFP+
1,CSc1nc2cc(Cl)c(Oc3cccc(Cl)c3Cl)cc2[nH]1 [Triclabendazole],inactive: 48.9%
2,COc1ccc2[nH]cc(CCNC(C)=O)c2c1 [Melatonin],inactive: 30.8%
3,Clc1ccc(C(Cn2ccnc2)OCc2ccsc2Cl)c(Cl)c1 (stereo unspecified) [Tioconazole],inactive: 40.6%
4,CCc1nc(-c2cccc(C)c2)c(-c2ccnc(NC(=O)c3ccccc3)c2)s1,inactive: 52.2%
5,Nc1ccc(S(N)(=O)=O)cc1 [Sulfanilamide],inactive: 50.2%
6,"CN1CCCC(n2nc(Cc3ccc(Cl)cc3)c3ccccc3c2=O)CC1 (stereo unspecified) [Azelastine, Azelastine Hydrochloride]",inactive: 41.1%
7,O=C(Nc1cc(C(F)(F)F)cc(C(F)(F)F)c1)c1cc(Cl)ccc1O,inactive: 42.4%
8,OCCOCCN1CCN(C(c2ccccc2)c2ccc(Cl)cc2)CC1 (stereo unspecified) [Hydroxyzine],inactive: 55.6%
9,Cc1cc(Nc2cc(N3CCN(C)CC3)nc(Sc3ccc(NC(=O)C4CC4)cc3)n2)n[nH]1,inactive: 33.6%
10,C=CCc1cccc(/C=N/NC(=O)CN2CCN(Cc3ccccc3)CC2)c1O,inactive: 50.5%
11,COc1cc2nccc(Oc3ccc(NC(=O)NC4CC4)c(Cl)c3)c2cc1C(N)=O [Lenvatinib],inactive: 27.6%
12,Clc1ccc(CSC(Cn2ccnc2)c2ccc(Cl)cc2Cl)cc1 (stereo unspecified) [Sulconazole],inactive: 47.6%
13,C[C@]12CC[C@@H]3c4ccc(O)cc4CC[C@H]3[C@@H]1CC[C@@H]2O [Estradiol],inactive: 46.4%
14,Cc1ccc(S(=O)(=O)n2c(N)nc3ccccc32)cc1 [Nodinitib-1],inactive: 51.9%
15,C[C@@H](Oc1cc(-n2cnc3ccc(CN4CCN(C)CC4)cc32)sc1C(N)=O)c1ccccc1C(F)(F)F,inactive: 27.8%
16,O=C(CCCN1CC=C(n2c(O)nc3ccccc32)CC1)c1ccc(F)cc1 [Droperidol],inactive: 55.4%
17,COc1cc2nccc(Oc3ccc(NC(=O)C4(C(=O)Nc5ccc(F)cc5)CC4)cc3)c2cc1OC [Cabozantinib],inactive: 29.6%
18,CC(=O)N1CCN(CCOc2ccc(C3CCN(C4=Nn5c(nnc5C(F)(F)F)CC4)CC3)cc2)CC1,inactive: 43.8%
19,CCCOc1ccc(C(=O)OCCN(CC)CC)cc1N [Proparacaine],inactive: 37.1%
20,"C[N+](C)(C)CC(O)CC(=O)O (stereo not drawn) [Carnitine Hydrochloride, Carnitine (dl) Hydrochloride]",inactive: 40.1%
21,O=C(O)c1cccnc1Nc1cccc(C(F)(F)F)c1 [Niflumic Acid],inactive: 44.2%
22,"c1ccc(CC2=NCCN2)cc1 [Tolazoline, Priscoline]",inactive: 42.5%
23,O=C(NCc1cccc(O)c1)Nc1nc(-c2ccncc2)cs1,inactive: 39.8%
